More than one record can exist for a structure, and the calls need not agree.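 Values shown are percent growth following 48 h exposure of cells in 96-well plates to a single concentration of compound; below 10 was considered active.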 Certain results were filed several times, with different values. The list is limited to them. There may be further records. This drug was run again and again over the years, at its own concentration, as given; one value stands for one run. Counts like (3×) stand for listed records that agree.
Tests used:
HOP-62 NSCLC = experiment: NCI-60 one-dose screen, 48 h (100 = growth as untreated, 0 = no growth, -100 = all killed); settings: 25 µM
NCI-H460 lung = experiment: as above; settings: 0.25 µM

SMILES: COc1cccc2c1C(=O)c1c(O)c3c(c(O)c1C2=O)C[C@@](O)(C(=O)CO)C[C@@H]3OC1CC(N)C(O)C(C)O1 (stereo not given in full)
- growth (HOP-62 NSCLC; runs of 1998): active: -26.9, -35, -52.2, -38.9, -2.74, -30, -51.1, -33.5, -57.5, -35.4, -17.9, 0.946, -32, -60.5 (2×), -44.3, -24.3, -17.2, -25.9, -20.4, -7.17, -21.3% and inactive: 25.5%
- growth (HOP-62 NSCLC; runs of 1999): active: 1.7, -25.6, -39.9, -20.3, -83.3, 4.1, -48.5, -60.2, -8.33, -63.3, 5.32, -100, -53, -66.6%
- growth (HOP-62 NSCLC; runs of 2000): active: -7.53, -100, 0.184, -12.9%
- growth (NCI-H460 lung; runs of 2006): inactive: 14.6% and active: 3.93%
- growth (NCI-H460 lung; runs of 2007): inactive: 10.2 (2×), 12.3, 15.2, 13.2, 12.7, 13.3, 10.8, 11.6, 11.3, 15 (2×), 14.9, 10.1, 26.1, 24.9, 24.8, 10.9, 10.7, 13.5% and active: -2.86, 4.33, 5.79, 5.56, 8.96, 8.55, 9.03, 0.772, 6.94, 7.56, 9.4, 9.53, 9.54, 8.89, 8.52, 5.44, -4.24, 9.27, 9.15%
- growth (NCI-H460 lung; runs of 2008): inactive: 10.8 (2×), 12.6, 16.4, 11.4 (2×), 11.9, 102, 17.9, 17.8, 10.1, 16.6, 16.8, 13.6 (2×), 16.1, 11.3% and active: 9.46, 6.42, 9.41, 6.5, 9.54, 9.9, -6.55, 7.19, 1.64, 9.01, 6.88, 8.17, 4.9, 4.46, 9, 5.73, 5.11, 5.23, 7.56, 5.94, 7.22, 7.82, -0.823, 8.03, -7.39, 8.75, 9.48, -2.5, 4.96, 7.37, 7.81, 9.64, 9.08, 6.8, 7.15, 5.39%
- growth (NCI-H460 lung; runs of 2009): active: 8.74, 6.68, 7.2, 4.99, -3.01, 7.8, 8.9, 8.52, 7.16, 9.73, -23.8, -25.6, 8.1, 5.82, 7.93 (2×), 5.66, 7.68, 6.21, 4.8, 6.15 (2×), 6.58, 3.57, 3.17, 9.49, 7.63, 8.04, 2.92, 8.64, 7.09, -3.28, 9.99, 8.35, 5.25, 1.29, 2.77, 7.83, -6.26, -32.8, 8.56, 3.29, 6.22, 4.25, 7.82, 0.215, -7.32, 5.39, 9.98, 7.25, 9.94, 8.88, 8.6% and inactive: 12.9, 10.9, 12.3, 11.7, 13.4, 15.4, 13, 14.8, 10.2, 13.6, 13.9, 14.9, 20.1, 15.1, 16.8, 14.5, 17%
- growth (NCI-H460 lung; runs of 2010): inactive: 13.7, 10.8, 11.7, 12, 10.6, 11.6 (2×), 12.3 (2×), 10.4 (2×), 14.6, 12.7, 11.5, 15.3, 14.9% (2×) and active: 2.27, 6.67, 9.82, 9.61, 5.7, 3.4, 4.73, 2.5, 4.49, 5.58, 7.78, 8.2, 7.71, 6.45, 7.08, 6.33, 9.75, 7.77, 8.92, 8.21, 9.68, 7.53, 4.57, 2.79, 6.04, 5.67, 2.94, 6.94, 8.9, 8.47, 6.42, 9.35, 6.81, 5.93%
- growth (NCI-H460 lung; runs of 2011): active: 7.08, 8.11 (2×), 6.59, 6.74, 8.82, 9.81, 9.49, 6.85, 8.81, 9.68, 6.73, 9.78, 6.23, 8.36, 6.4, 7.72, 6.49, 7.49, 5.16, 5.65, 8.23, 8.85, 8.47, 9.67, 6.07, 6.96, 9.23, 7.45, 7.42, 8.5, 9.19, 6.33, 9.24, 8.87, 6.71, 5.9, 9.62, 5.6, 7.61, 7.02, 8.74, 8.67% and inactive: 15.4, 11.7, 15.2, 11.8, 12.6, 10.9, 13.4, 10.6, 13.9, 10.1 (3×), 10.8, 11.1, 13.1, 10.2, 16%
- growth (NCI-H460 lung; runs of 2012): active: 8.4, -1.82, 8.68, 6.7, 9.23, 9.44, 9.81, 9.4, 5.95, 4.87, 3.78, 6.8, 3.37, 6.85, 6.03, 1.86, 4.7, 3.41, 5.26, 6.92, 8.78, 9.11, 9.31, 6.5, 9.14, 6.93, 8.76, 7.63, 4.32, 7.82, 7.87, 4.07, 8.98, 7.98, 6.86, 1.97% and inactive: 10.6, 10.7, 17.1, 10, 11.9, 13.3 (2×), 10.8, 14.6 (3×), 12.6, 11.1, 10.1 (2×), 15.2, 14.7, 13.1 (2×), 11.3 (3×), 14.1, 13.9, 13.5, 14.5, 14, 13.4, 14.4, 16%
- growth (NCI-H460 lung; runs of 2013): inactive: 10.4 (2×), 12.1 (3×), 10.6 (2×), 10.1 (2×), 13.6 (2×), 12.9, 10.2, 14.6, 12.3, 12.6, 10.9 (2×), 15.6, 15, 15.2, 12, 10.8, 11.6, 13.2% and active: 9.02, 8.35, 8.52, 6.75, 9.91, 9.98, 9.95, 8.17, 7.35, 9.64, 7.69, 8.55 (2×), 9.1, 8.38, 8.66, 7.73, 7.49, 8.58 (2×), 8.97, 8.43, 9.71, 9.57, 7.24, 5.7, 9.27, 6.39, 8.84, 8.93, 7.07, 4.41, 5.31, 2.62, 6.38, 4.61, 4.51, 7.88, 5.97, 6.49, 7.86, 4.81, 6.29, 5.44, 6.56, 5.71, 7.47%
- growth (NCI-H460 lung; runs of 2014): active: 6.16 (2×), 5.83, 9.4, 4.73, 3.85, 6.04, 3.37, 5.63, 5.78, 7.02, 6.62, 6.2, 7.52, 7.41, 8.57 (2×), 6.24 (2×), 8.89, 6.19, 8.82, 8.32, 9.42, 8.94 (2×), 6.65 (2×), 8.61, 8.5, 6.85, 8.92, 9.94, 8.22, 9.25, 9.73, 9.96, 8.95, 9.27, 9.17, 7.6, 8.07, 9.59, 9.19, 5.64, 5.84, 9.61, 7.21, 9.08, 4.63, 9.16, 5.69, 6.41 (2×), 7.18, 8.38, 9.26, 8.47, 9.34, 7.85, 5.85% and inactive: 10.7 (3×), 11.4, 10.8 (2×), 11.5 (2×), 13.1, 12.1, 10.9, 10.6, 13.2, 11.3, 10.1%
- growth (NCI-H460 lung; runs of 2015): inactive: 10.2, 11.6, 10.9, 13.6, 10.1, 12.7, 13.7, 10.6, 10.4% and active: 5.99, 5.28, 6.46, 4.97, 9.2, 9.4 (3×), 8.67, 7.7, 7.38, 9.54, 6.5, 5.46, 6.27, 3.45, 4.79, 5.63, 6.47, 5.87, 5.27, 3.81, 7.03, 5.66, 4.92, 6.82, 5.33, 5.38, 4.67, 5.17, 7.28, 5.6, 8.82, 7.78, 8.63, 8.38, 5.96, 4.77, 8.9, 2.37, 5.13, 9.09, 9.27, 5.22, -0.411, 2.71, 6.53, 2.5, 2.99, 4.06, 2.43, 1.89, 3.57, 8.86, 4.56, 5.62, 6.37, 4.91, 6.81, 5.93, 9.13, 7.53 (2×), 8.83, 8.27, 9.1, 8.05, 9.46, 8.62, 8.02, 8.57, 7.45, 8.22, 9.37, 6.61, 8.21, 7.39, 9.44, 9.66%
- growth (NCI-H460 lung; runs of 2016): active: 8.28, 7.75, 7.78, 8.4, 9.94, 8.66, 8, 8.8, 7.23, 8.75, 5.02, 5.1 (2×), 7.47, 8.01, 3.14, 4.77, 2.74, 4.22, 2.45, 2.6, 5.44, 5.11, 4.96, 7.4, 7.58, 8.57, 6.26, 4.38, 6.17, 7.28, 6.78, 5.87, 7.32, 7.92, 6.77, 7.48, 4.3, 9.93, 8.02, 9.7, 9.31, 9.46, 8.58, 9.32, 7.44, 9.63, 7.76, 9.73, 8.33, 9.11% and inactive: 11.5 (6×), 10.2 (4×), 12.6, 10.7, 12.1 (3×), 10.9, 14.5, 10 (2×), 13.7 (2×), 11.8, 16.4, 15.2, 13.5, 11.7, 11.3, 10.6, 10.4%
- growth (NCI-H460 lung; runs of 2017): inactive: 11.6, 11.3 (2×), 11.5, 13.2% and active: 9.52, 8.85, 7.69, 5.32, 7.22, 6.35, 4.9, 5.62, 7.46, 5.78, 5.02, 5.52, 5.8, 4.44, 7.39, 5.67, 6.1, 7.76, 8.01, 6.01, 5.75 (2×), 9.5, 6.42, 8.4, 6.55, 5.63, 4.96, 6.11, 7.92, 6.03, 9.08, 9.71, 6.88, 3.6, 5.87, 6.47, 6.46, 6.5, 8.8, 7.91, 6.37, 7.36, 7.42, 7.57, 8.33, 7.2 (2×), 6.22, 7.21, 9.33, 9.2, 9.13, 5.6, 7.33, 5.04, 7.52, 6.51, 6.61, 4.87, 5.74, 7.23, 7.88, 8.74, 9.88, 9.68, 6.91, 6.44, 6.92, 9.37, 9.14%

Reference: PubChem BioAssay (NCI)
